# Entries after “also recorded” stand apart in the source; their conditions may differ. Part of at least one peptide drawing is inferred or uncertain, most often the ends. Some compounds share one wording; it may come from a single statement. Square brackets hold non-standard residues; d marks the D form. Ends that are not written are not given here. Peptide text beside a SMILES is read from it. Cha = N[C@@H](CC1CCCCC1)C(=O)O; Nle = CCCC[C@H](N)C(=O)O; Nva = CCC[C@H](N)C(=O)O
# How the values were obtained:
# [1] = system: T cells specific for the wild-type NY-ESO-1157-165 epitope; test: Cross-reactivity and functional avidity: IFN-gamma production by T cells specific for NY-ESO-1 157-165; format: cell-based, HHD transgenic mice; settings: IFN-gamma production ex vivo
# [2] = system: splenocytes stimulated with native PSMA288-297 peptide; test: PSMA plasmid prime / peptide boost, IFN-γ ELISPOT; format: in vivo, HHD transgenic mice; settings: versus natural peptide boost
# Lncap, A2+ PSMA+ = test: PSMA plasmid prime / I297V boost, ex vivo 51Cr cytotoxicity against human tumor cells; format: in vivo; settings: analog boost
# [3] = system: T cell lines against natural epitope SSX-241-49; test: Cross-reactivity and functional avidity: IFN-gamma production by T cell lines raised against natural SSX-2 41-49; format: cell-based, HHD transgenic mice; settings: T cells raised against native SSX-2 41-49 stimulated with analog, native = 1, lower = more active
# [4] = system: target cells coated with natural peptide; test: SSX-2 plasmid prime / peptide boost, in vivo cytotoxicity (CFSE) against natural peptide coated splenocytes; parameters: species or system HHD mice; settings: spleen and blood; targets coated with 20 μg/ml and 1 μg/ml natural peptide
# [5] = system: splenocytes stimulated with wild-type peptide NY-ESO-1157-165; test: NY-ESO-1 plasmid prime / peptide boost, ex vivo IFN-γ production (ELISA); format: in vivo, mice; settings: 10 μM wild-type peptide, 3 and 6 days
# T2 cells = test: SSX-2 plasmid prime / peptide boost, ex vivo 51Cr cytotoxicity against T2 target cells; format: in vivo, mice; settings: splenocytes restimulated with natural peptide, compared to A42L or wild-type boost
# 624.38 melanoma cells = test: SSX-2 plasmid prime / peptide boost, ex vivo 51Cr cytotoxicity against human tumor cells; format: in vivo; settings: various E:T ratios
# 624.38 cells = test: Tyrosinase pSEM prime / peptide boost, ex vivo 51Cr cytotoxicity against human tumor cells; format: in vivo; settings: splenocytes restimulated with native Tyrosinase369-377
# HLA-A*0201 = HLA-A*0201 (Homo sapiens, UniProt P04439, D140Y/D185E/D98H/E176V/E277Q/G131W/G231S/I119V/I121R/I166T/I218V/L300P/L318F/N151K/N90K/P208A/P217A/Q86G/Q94H/R138H/R169H/T345S); test: Peptide binding using T2 cells (affinity to HLA-A*0201); parameters: endogenous in cells; host or cells: T2 cells; settings: half maximal binding of wild-type peptide relative to analog
# [6] = system: target cells coated with wild-type peptide; test: NY-ESO-1 plasmid prime / peptide boost, in vivo cytotoxicity (CFSE); parameters: species or system HHD mice
# [7] = system: splenocytes stimulated with native PRAME425-433 peptide; test: PRAME pCTLR2 prime / peptide boost, ex vivo IFN-γ production (ELISA); format: in vivo, HHD transgenic mice; settings: 2.5 μg peptide boost, 10 μg/ml native peptide, 48 hours
# [8] = system: splenocytes loaded with native peptide; test: PRAME pCTLR2 prime / peptide boost, in vivo cytotoxicity (CFSE); parameters: species or system HHD transgenic mice
# [9] = system: PRAME425-433-specific T cells; test: PRAME pCTLR2 prime / peptide boost, tetramer/CD8 co-staining; format: in vivo, HHD transgenic mice; settings: versus mice boosted with negative control peptide
compound,measurement,setting,value
"CC[C@H](C)[C@H](NC(=O)[C@H](Cc1c[nH]c2ccccc12)NC(=O)[C@H](CCSC)NC(=O)[C@H](CC(C)C)NC(=O)[C@H](CC(C)C)NC(=O)[C@@H](N)CO)C(=O)N[C@H](C(=O)N[C@@H](CCC(N)=O)C(=O)N[C@@H](CS)C(=O)N[C@@H](Cc1ccccc1)C(=O)O)[C@@H](C)O [NY-ESO-1157-166, reference compound]",Activity in cross-reactivity / functional avidity assay relative to wild-type NY-ESO-1 157-165 (in words),[1],showed no immunological activity
CC[C@H](C)[C@H](NC(=O)[C@H](CO)NC(=O)[C@@H]1CCCN1C(=O)[C@H](CC(C)C)NC(=O)CN)C(=O)N1CCC[C@H]1C(=O)N[C@H](C(=O)N[C@@H](Cc1c[nH]cn1)C(=O)N1CCC[C@H]1C(=O)N[C@H](C(=O)O)C(C)C)C(C)C [PSMA 288-297(I297V)],Frequency of native epitope-specific T cells (IFN-γ ELISPOT),[2],considerably higher
same,Cytotoxicity against PSMA+ human tumor cells,"Lncap, A2+ PSMA+",cytotoxic immunity against a PSMA^+ human tumor line; also recorded: effective in mediating cytotoxicity against LNCAP
YASEKIFYV [SSX2 41-49 (K41Y)],Cross-reactivity and fct avidity (native to analogs),[3],3
same,In vivo cytotoxicity (% specific lysis) relative to natural peptide,[4],increased activity relative to the natural peptide
CC[C@H](C)[C@H](NC(=O)[C@H](Cc1c[nH]c2ccccc12)NC(=O)[C@H](CCSC)NC(=O)[C@H](CC(C)C)NC(=O)[C@@H](NC(=O)[C@@H](N)Cc1ccccc1)C(C)C)C(=O)N[C@H](C(=O)N[C@@H](CCC(N)=O)C(=O)N[C@H](C(=O)O)C(C)C)[C@@H](C)O [S157F L158V C165V],IFN-gamma production upon ex vivo re-stimulation with wild-type peptide,[5],increased amounts of IFN-gamma
CC[C@H](C)[C@H](NC(=O)[C@H](CCCCN)NC(=O)[C@H](CCC(=O)O)NC(=O)[C@H](CO)NC(=O)[C@@H](NC(=O)[C@@H](N)CCCCN)C(C)C)C(=O)N[C@@H](Cc1ccccc1)C(=O)N[C@@H](Cc1ccc(O)cc1)C(=O)N[C@H](C(=O)O)C(C)C [SSX2 41-49 (A42V)],Cross-reactivity and fct avidity (native to analogs),[3],0.03
same,Response against target cells expressing the natural peptide (ex vivo cytotoxicity),T2 cells,triggered a higher response
same,Cytotoxicity against human tumor cells expressing natural SSX-2 41-49,624.38 melanoma cells,increased cytotoxicity
"CSCC[C@H](NC(=O)[C@@H](NC(=O)CNC(=O)[C@H](CC(=O)O)NC(=O)[C@H](CCSC)NC(=O)[C@@H](N)Cc1ccc(O)cc1)[C@@H](C)O)C(=O)N[C@@H](CO)C(=O)N[C@@H](CCC(N)=O)C(=O)N[C@H](C(=O)O)C(C)C [Tyrosinase 369-377, reference compound]",Cytotoxicity against 624.38 cells after peptide boost,624.38 cells,robust cytotoxicity against 624.38 cells
"CC[C@H](C)[C@H](NC(=O)[C@H](CCCCN)NC(=O)[C@H](CCC(=O)O)NC(=O)[C@H](CO)NC(=O)[C@H](Cc1cccc2ccccc12)NC(=O)[C@@H](N)CCCCN)C(=O)N[C@@H](Cc1ccccc1)C(=O)N[C@@H](Cc1ccc(O)cc1)C(=O)N[C@H](C(=O)O)C(C)C [SSX2 41-49 (A42(Nal-1)), KNal-1SEKIFYV]",Cross-reactivity and fct avidity (native to analogs),[3],>10
same,Relative affinity (1/RA),HLA-A*0201,N/B
CCC[C@H](NC(=O)[C@H](CCC(N)=O)NC(=O)[C@H](CO)NC(=O)[C@H](CCSC)NC(=O)[C@@H](NC(=O)CNC(=O)[C@H](CC(=O)O)NC(=O)[C@@H](NC(=O)[C@@H](N)Cc1ccc(O)cc1)C(C)C)[C@@H](C)O)C(=O)O [M370V V377Nva] (H-YVDGTMSQ[Nva]-OH),Cytotoxicity against 624.38 cells after peptide boost,624.38 cells,robust cytotoxicity against 624.38 cells
CC[C@H](C)[C@H](NC(=O)[C@H](Cc1c[nH]c2ccccc12)NC(=O)[C@H](CCSC)NC(=O)[C@H](CC(C)C)NC(=O)[C@@H](NC(=O)[C@@H](N)CCCCN)C(C)C)C(=O)N[C@H](C(=O)N[C@@H](CCC(N)=O)C(=O)N[C@H](C(=O)O)C(C)C)[C@@H](C)O [S157K L158V C165V],In vivo cytotoxicity against target cells coated with wild-type NY-ESO-1 peptide,[6],effect in the same range with wild-type peptide or the C165V mutant
"CCC[C@H](NC(=O)[C@@H](N)CO)C(=O)N[C@@H](CC(C)C)C(=O)N[C@@H](CCSC)C(=O)N[C@@H](Cc1c[nH]c2ccccc12)C(=O)N[C@H](C(=O)N[C@H](C(=O)N[C@@H](CCC(N)=O)C(=O)N[C@H](C(=O)O)C(C)C)[C@@H](C)O)[C@@H](C)CC [Nyeso-1 157-165 (L158Nva, C165V)), SNvaLMWITQV]",In vivo cytotoxicity against target cells coated with wild-type NY-ESO-1 peptide,[6],"substantial, constant cytotoxicity"
same,IFN-gamma production upon ex vivo re-stimulation with wild-type peptide,[5],produced large levels of IFN-gamma more rapidly
CC[C@H](C)[C@H](NC(=O)[C@H](Cc1c[nH]c2ccccc12)NC(=O)[C@H](CCSC)NC(=O)[C@H](CC(C)C)NC(=O)[C@@H](NC(=O)[C@@H](N)Cc1ccc(O)cc1)[C@@H](C)CC)C(=O)N[C@H](C(=O)N[C@@H](CCC(N)=O)C(=O)N[C@H](C(=O)O)C(C)C)[C@@H](C)O [S157Y L158I C165V],Activity in cross-reactivity / functional avidity assay relative to wild-type NY-ESO-1 157-165 (in words),[1],increased activity relative to the wild-type peptide
CCC[C@H](NC(=O)[C@H](CCC(N)=O)NC(=O)[C@@H](NC(=O)[C@@H](NC(=O)[C@H](Cc1c[nH]c2ccccc12)NC(=O)[C@H](CCSC)NC(=O)[C@H](CC(C)C)NC(=O)[C@@H](NC(=O)[C@@H](N)CO)C(C)C)[C@@H](C)CC)[C@@H](C)O)C(=O)O [L158V C165Nva] (H-SVLMWITQ[Nva]-OH),In vivo cytotoxicity against target cells coated with wild-type NY-ESO-1 peptide,[6],effect in the same range with wild-type peptide or the C165V mutant
same,IFN-gamma production upon ex vivo re-stimulation with wild-type peptide,[5],increased amounts of IFN-gamma
FASEKIFYV [SSX2 41-49 (K41F)],Cross-reactivity and fct avidity (native to analogs),[3],0.3
same,In vivo cytotoxicity (% specific lysis) relative to natural peptide,[4],increased activity relative to the natural peptide
"CC[C@H](C)[C@H](NC(=O)[C@H](Cc1ccc(O)cc1)NC(=O)[C@H](Cc1ccccc1)NC(=O)[C@@H](NC(=O)[C@H](CCCCN)NC(=O)[C@H](CCC(=O)O)NC(=O)[C@H](CO)NC(=O)[C@@H](NC(=O)[C@@H](N)Cc1ccccc1)C(C)C)[C@@H](C)CC)C(=O)O [SSX2 41-49 (K41F, A42V, V49I)]",Cross-reactivity and fct avidity (native to analogs),[3],0.3
same,Cytotoxicity against human tumor cells expressing natural SSX-2 41-49,624.38 melanoma cells,increased cytotoxicity
"CC[C@H](C)[C@H](NC(=O)[C@H](Cc1c[nH]c2ccccc12)NC(=O)[C@H](CCSC)NC(=O)[C@H](CC(C)C)NC(=O)[C@H](CC(C)C)NC(=O)[C@@H](N)CO)C(=O)N[C@H](C(=O)N[C@@H](CCC(N)=O)C(=O)N[C@H](C(=O)O)C(C)C)[C@@H](C)O [Peptide C165V, reference compound]",IFN-gamma production upon ex vivo re-stimulation with wild-type peptide,[5],failed to induce increased capability of T cells to produce IFN-γ
SVLMWITQV [L158V C165V],In vivo cytotoxicity against target cells coated with wild-type NY-ESO-1 peptide,[6],effect in the same range with wild-type peptide or the C165V mutant
same,IFN-gamma production upon ex vivo re-stimulation with wild-type peptide,[5],increased amounts of IFN-gamma
"CCCC[C@H](NC(=O)CNC(=O)[C@@H](NC(=O)[C@H](CC(C)C)NC(=O)[C@H](Cc1c[nH]cn1)NC(=O)[C@H](CCC(N)=O)NC(=O)[C@H](CC(C)C)NC(=O)[C@H](CCC)NC(=O)[C@@H](N)[C@@H](C)O)[C@@H](C)CC)C(=O)O [S425T L426Nva L433Nle, T {Nva} LQHLIG {Nle}] (H-T[Nva]LQHLIG[Nle]-OH)",IFN-γ production by splenocytes in response to native PRAME425-433,[7],ex vivo cytokine production
same,In vivo cytotoxicity against native PRAME epitope coated cells,[8],capable of expanding the immunity against the native epitope
same,Expansion of T cells specific against native PRAME epitope (tetramer),[9],significantly higher
CCCC[C@H](NC(=O)CNC(=O)[C@@H](NC(=O)[C@H](CC(C)C)NC(=O)[C@H](Cc1c[nH]cn1)NC(=O)[C@H](CCC(N)=O)NC(=O)[C@H](CC(C)C)NC(=O)[C@H](CC(C)C)NC(=O)[C@@H](N)[C@@H](C)O)[C@@H](C)CC)C(=O)O [S425T L433Nle] (H-TLLQHLIG[Nle]-OH),In vivo cytotoxicity against native PRAME epitope coated cells,[8],capable of expanding the immunity against the native epitope
CC[C@H](C)[C@H](NC(=O)[C@H](CCCCN)NC(=O)[C@H](CCC(=O)O)NC(=O)[C@H](CO)NC(=O)[C@H](C)NC(=O)[C@@H](N)CC1CCCCC1)C(=O)N[C@@H](Cc1ccccc1)C(=O)N[C@@H](Cc1ccc(O)cc1)C(=O)N[C@H](C(=O)O)C(C)C [SSX2 41-49 (K41(Cha))] (H-[Cha]ASEKIFYV-OH),Cross-reactivity and fct avidity (native to analogs),[3],>10
same,Relative affinity (1/RA),HLA-A*0201,N/B
CCCC[C@H](NC(=O)CNC(=O)[C@@H](NC(=O)[C@H](CC(C)C)NC(=O)[C@H](Cc1c[nH]cn1)NC(=O)[C@H](CCC(N)=O)NC(=O)[C@H](CC(C)C)NC(=O)[C@H](CC(C)C)NC(=O)[C@@H](N)CO)[C@@H](C)CC)C(=O)O [Peptide L433Nle],In vivo cytotoxicity against native PRAME epitope coated cells,[8],capable of expanding the immunity against the native epitope
same,Expansion of T cells specific against native PRAME epitope (tetramer),[9],significantly higher
SVLMWITQC [Peptide L158V],Activity in cross-reactivity / functional avidity assay relative to wild-type NY-ESO-1 157-165 (in words),[1],partial retention of activity

# Reference: patent US8653237B2, “Peptide analogues” (MannKind Corporation, priority 2005, dated 2014)
